# Screen size: about 110,000 compounds; about 230 (0.21%) showed an effect of 50% or more. The list shows a part of the results.
# Target: DPAP1 (Plasmodium falciparum, UniProt Q8IIJ9)
# Test: primary screen, percent inhibition; read by cleavage of a fluorogenic dipeptide substrate; higher = more effect of the substance
# Set-up: species or system P. falciparum D10 trophozoite lysates; single well
# 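Also: 30 min substrate incubation versus DMSO and 10 µM JCP410 controls.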
# DPAP1, sequence (Q8IIJ9 whole entry, looked up): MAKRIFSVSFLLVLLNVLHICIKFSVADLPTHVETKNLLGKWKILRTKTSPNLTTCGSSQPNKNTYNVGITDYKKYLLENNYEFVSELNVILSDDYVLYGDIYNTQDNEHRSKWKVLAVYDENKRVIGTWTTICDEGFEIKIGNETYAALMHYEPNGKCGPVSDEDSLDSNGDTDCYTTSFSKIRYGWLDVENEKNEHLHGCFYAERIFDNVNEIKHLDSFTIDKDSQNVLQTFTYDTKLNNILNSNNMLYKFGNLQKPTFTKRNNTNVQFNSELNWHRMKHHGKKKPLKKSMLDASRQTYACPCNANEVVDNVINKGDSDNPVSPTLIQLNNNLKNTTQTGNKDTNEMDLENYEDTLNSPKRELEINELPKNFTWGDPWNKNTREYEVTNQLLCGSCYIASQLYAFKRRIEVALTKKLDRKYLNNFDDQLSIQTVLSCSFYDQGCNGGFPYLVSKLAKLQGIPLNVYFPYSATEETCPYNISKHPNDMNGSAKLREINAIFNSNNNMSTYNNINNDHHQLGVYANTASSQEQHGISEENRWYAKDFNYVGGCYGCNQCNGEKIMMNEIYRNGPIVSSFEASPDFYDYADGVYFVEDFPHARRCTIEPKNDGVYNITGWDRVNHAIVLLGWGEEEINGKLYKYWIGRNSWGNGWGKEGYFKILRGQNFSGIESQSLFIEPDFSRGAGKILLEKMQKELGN
row,SMILES,% Inhibition @ 10 uM
1,Cc1cc(C)c(S(=O)(=O)N2CCC(Cc3ccccc3)CC2)c(C)c1,0.526%
2,CCOc1ccccc1C(=O)Nc1ccccc1C(N)=O,9.29%
3,COCCNc1nn2nnnc2c2ccccc12,0.802%
4,COc1ccc(CNC(=O)c2cc3n(n2)C(C(F)(F)F)CC(c2ccc(OC)cc2)N3)cc1 (stereo not drawn),-0.318%
5,O=C(NC1(C(F)(F)F)Oc2ccccc2O1)N1CCc2ccccc2C1,-1.2%
6,O=CN1CCN(Cc2cc(Cl)cc(Cl)c2O)CC1,-4.04%
7,CC(C)C(=O)NCCc1nc2ccccc2n1CCc1ccccc1,1.64%
8,O=C(CNS(=O)(=O)c1ccccc1)Nc1ccc(F)cc1F,-3.95%
9,Cc1ccc(C)c(Cn2c(C)c(CNC3CCCC3)c(C(=O)O)c2C)c1,2.8%
10,CCOc1ccc(CCNc2nnc3c4ccccc4n(CC)c3n2)cc1,-1.87%
11,CSCCC(C(=O)N1CCOCC1)N1C(=O)C2C3c4ccccc4C(c4ccccc43)C2C1=O (stereo not drawn),-0.941%
12,CSc1ccc(C2C(C#N)=C(N)Oc3nc(C)nc(O)c32)cc1 (stereo not drawn),-0.446%
13,Cc1cc(F)c(F)cc1C(=O)N1CCOCC1,-4.18%
14,O=[N+]([O-])c1cc(CN2CCSCC2)ccc1Cl,-0.969%
15,N#C/C(=C\c1ccc(Cl)cc1Cl)C(=O)NCC1CCCO1 (stereo not drawn),9.47%
16,CCOC(=O)c1c(-c2ccccc2)csc1NC(=O)Cn1nc(C(F)(F)F)c2c1CCC2,7.16%
17,CC(C)Cn1cc(NC(=O)NCC2CCN(Cc3cccc(Cl)c3)CC2)c2ccccc2c1=O,-3.83%
18,CCOC(=O)C1=C(C)N=c2s/c(=C\c3coc4ccccc4c3=O)c(=O)n2C1c1ccccc1 (stereo not drawn),-9.6%
19,O=C(CN1C(=O)c2ccccc2S1(=O)=O)NC1CC2CCC1C2 (stereo not drawn),-0.116%
20,O=C1CN=C(c2ccccc2Br)c2cc(Cl)ccc2N1,-3.09%
21,CC1(C)CC(=O)C2=C(C1)c1c(ccc3ccccc13)NC2c1cc([N+](=O)[O-])ccc1O (stereo not drawn),-2.18%
22,CSc1nccc(N2CCN(c3ccc(F)cc3)CC2)n1,-10.7%
23,Cc1ccc(C23CC4CC(CC(O)(C4)C2)C3)cc1N,2.58%
24,Cc1ccc(S(=O)(=O)N2CCC(C(=O)Nc3ccccc3C(=O)O)CC2)cc1,0.5%
25,Cc1nc2c(-c3ccc(F)cc3)c(C)nn2c(C)c1CCC(=O)NCCc1ccccc1,2.93%

row,SMILES,% Inhibition @ 10 uM
1,CC(C)CCNC(=O)c1csc2c1CCC(C)C2 (stereo not drawn),-9.17%
2,OC1CCN(C2CCC(c3ccccc3)CC2)CC1 (stereo not drawn),-4.75%
3,CC(C)Cc1cc(C(=O)N2CCN(Cc3noc(CCC(=O)N(C)C4CCCCC4)n3)CC2)no1,-4.46%
4,COCCN1C(=O)c2[nH]nc(-c3ccccc3O)c2C1c1cccc(Oc2ccccc2)c1 (stereo not drawn),8.13%
5,COc1cc(C(=O)n2nc(-c3cccnc3)nc2NCc2ccc(F)cc2)cc(OC)c1OC,-2.92%
6,CN1CCN(S(=O)(=O)c2ccc(Cl)cc2)CC1,-3.77%
7,CC(C)(C)C(=O)C1C2CCC1C(O)C2 (stereo not drawn),-4.01%
8,CC1(C)Cc2ccccc2/C(=C/C(=O)NC2CCCCC2)N1,1.9%
9,COc1ccc(C2N(C(=O)N3CCOCC3)CCN2S(=O)(=O)c2ccc(C)cc2)cc1 (stereo not drawn),-1.92%
10,CC(=O)Nc1ccc2[nH]c(C(F)(F)F)nc2c1,-2.78%
11,CCOC(=O)c1cnn(-c2cc(C)c3ccccc3n2)c1N,1.43%
12,CCCn1nc(NS(C)(=O)=O)c2cc3cccc(C)c3nc21,1%
13,O=C(c1cc2ccc3cccnc3c2[nH]1)N1CCN(c2ccccn2)CC1,0.886%
14,CCOC(=O)c1cc2c(=O)n3ccccc3nc2n(C)/c1=N\C(=O)/C=C/c1ccccc1,-1.2%
15,O=C(NC1(C(F)(F)F)C(=O)Nc2c1c(=O)[nH]c(=O)n2-c1ccccc1F)c1cccs1 (stereo not drawn),4.75%
16,O=C(Cn1nnc(-c2ccc3c(c2)OCO3)n1)NCCCN1CCOCC1,0.883%
17,O=C(Cn1ncc2c3ccccc3nc-2c1O)Nc1cccnc1,-3.73%
18,COc1cc2c(cc1OC)C(Nc1cc(C)ccc1C)=NC(C)(C)C2,-0.725%
19,Cc1cc(NC(=O)c2cc(-c3ccco3)on2)nn1Cc1ccc(Cl)cc1,-10%
20,Clc1cc(Cl)c2c(-c3ccccc3)n(-c3ccccc3)nc(-c3ccccc3)c1-2,0.757%
21,COc1ccc(CCNC(=O)c2cccc3c2SCCC3=O)cc1OC,0.658%
22,CCn1c2ccccc2c2cc(NC(=O)COC)ccc21,4.83%
23,CCCCN(CCCNC(=O)Cn1ncc2ccsc2c1=O)Cc1ccccc1,0.44%
24,COc1ccccc1C(=O)NCc1ccc(Cl)c(Cl)c1,1.83%
25,CCOc1ccc(-c2csc(-c3nc(-c4ccc(OCC)cc4)cs3)n2)cc1,0.273%

row,SMILES,% Inhibition @ 10 uM
1,O=C(Cc1c[nH]c2ccccc12)NCCc1c[nH]c2ccc(OCc3ccccc3)cc12,6.48%
2,NC(=O)C1CCN(C(=O)CCCc2nnc3n4nc(-c5ccccc5)nc4c4ccccc4n23)CC1,-4.69%
3,O=S(=O)(c1ccc(-n2cnnn2)cc1)N1CCN(c2ncccn2)CC1,5.43%
4,Cc1cc(C)c(S(=O)(=O)N2CCC(C(=O)O)CC2)c(C)c1,-3.08%
5,COc1ccc(/C=C/C=C2C(=O)NC(=O)NC2=O)cc1,1%
6,COc1ccc2c(=O)c(Oc3cc(C)cc(C)c3)coc2c1,6.08%
7,COc1cc(/C=C2\C(=O)NC(=O)N(C)C2=O)cc(OC)c1OC,2.3%
8,CNCCC1Sc2ccccc2Oc2ccccc21 (stereo not drawn),0.24%
9,Cc1ccc(C2CC3=Nc4ccccc4N(C(=O)C4CC4)C(c4cccnc4)C3=C(O)C2)cc1 (stereo not drawn),-3.77%
10,NC(=O)C1CCN(CCc2ccccc2)CC1,-4.75%
11,CN(Cc1ccc(F)c(F)c1)CC(O)c1ccccc1 (stereo not drawn),0.472%
12,CCOc1nc2c(c(=O)n(C)c(=O)n2C)n1Cc1cccc(F)c1,5.53%
13,COc1ccc(Cl)cc1N(CC(=O)NCC1CCCO1)S(=O)(=O)c1ccc(C)cc1 (stereo not drawn),7.93%
14,CC1CCCC(C)N1C(=O)c1ccc(CNS(=O)(=O)c2cccc(C(F)(F)F)c2)cc1 (stereo not drawn),4.31%
15,CCC(C(=O)NCc1ccc(C)o1)n1nc(C)c2sc3ccccc3c2c1=O (stereo not drawn),-1.75%
16,Nc1nonc1Sc1nc2ccccc2[nH]1,-0.216%
17,Cn1c(=O)c2c(nc3n(Cc4ccccn4)c(-c4ccc(Br)cc4)cn23)n(C)c1=O,2.38%
18,CCOC(=O)C1CCN(c2cc(C)c3ccccc3n2)CC1,2.16%
19,COc1cc(OC)c(OC)cc1/C=C1\N=C(c2cc(OC)c(OC)c(OC)c2)OC1=O,-12.5%
20,COc1ccc(-c2nc3sc(-c4ccccc4)cc3c(=O)o2)cc1,1.75%
21,COc1ccccc1N(CC(=O)N1CCN(C)CC1)S(C)(=O)=O,0.755%
22,COc1ccc(OCCCCSC(C)C)cc1,-4.58%
23,CC(NC(=O)C1CCN(C(=O)c2cc3sccc3n2C)CC1)c1ccc2c(c1)OCCO2 (stereo not drawn),1.8%
24,CC(C)C[C@H](NC(c1ccc(-c2ccc(S(C)(=O)=O)cc2)cc1)c1nccs1)C(=O)NC1(C#N)CC1 (stereo partly drawn),-8.26%
25,O=C(CCC1=Nc2ncc(Br)cc2S(=O)(=O)N1)N1CCOCC1,-3.64%

row,SMILES,% Inhibition @ 10 uM
1,CC(=C1C(=O)c2ccccc2C1=O)N1CCN(Cc2ccc3c(c2)OCO3)CC1,1.52%
2,CC(C)OP(=O)(OC(C)C)C(Nc1ccc2ccccc2c1)c1ccccc1O (stereo not drawn),7.11%
3,CCc1nn(CC(=O)NCCCN(CC)CC)c(=O)c2cc3sccc3n12,3.4%
4,O=C(NCCCc1ccccc1)C1CCN(c2cnccn2)CC1,-2.71%
5,CCOC(=O)C1CCCN(Cc2sccc2C)C1 (stereo not drawn),3.1%
6,Cc1c(C(=O)NCCOC23CC4CC(C)(CC(C)(C4)C2)C3)sc2nc3n(c(=O)c12)CCCCC3,4.41%
7,CC(=O)NS(=O)(=O)c1ccc(NC(=O)COc2ccc(C)cc2)cc1,-0.473%
8,O=C(NCCc1c[nH]c2ccc(OCc3ccccc3)cc12)c1ccc([N+](=O)[O-])cc1,-3.81%
9,C=CCN1C(=O)C2(C(C#N)=C(N)Oc3n[nH]c(CC)c32)c2ccccc21 (stereo not drawn),-4.61%
10,COc1ccc(C(=O)c2cc3ccccc3cc2N)cc1,-0.891%
11,Cc1cc(C)n(-c2nc3c(c(=O)[nH]c(=O)n3C)n2CC(O)COc2ccccc2C)n1 (stereo not drawn),4.67%
12,CCOc1cc2c(cc1/C=C1/NC(=O)N(Cc3ccc(Cl)cc3)C1=O)OCO2,-0.0626%
13,COc1ccccc1C(=O)N(CCN(C)C)c1nc2ccc(Cl)cc2s1,-9.48%
14,OCCN1CCN(Cc2ccc(F)c(F)c2)CC1,0.247%
15,COCCNC(=O)CN1Cc2ccccc2C1=O,-0.501%
16,O=C(/C=C/c1ccccc1)Nc1ccc(Br)cn1,-3.48%
17,CC(C)(C)c1ccc(C(=O)NCCn2ccc3ccccc32)cc1,1.97%
18,Cc1cccc(C)c1NC(=O)C(c1ccc(Cl)cc1)N(C)C(=O)CN1C(=O)c2ccccc2C1=O (stereo not drawn),14.4%
19,Nc1cc(Oc2ccccc2)cc(Oc2cccnc2)c1,3.09%
20,CN1CSC2=C(C#N)C(c3ccccc3Cl)CC(=O)N2C1 (stereo not drawn),56.6%
21,O=C(CSc1c2c(nc3ccc(Cl)cc13)CCCC2)NCc1cccnc1,-4.96%
22,COc1ccc(N2C3=C(C(=O)CC2c2ccccc2)C(=O)CC(C)(C)C3)cc1 (stereo not drawn),-6.43%
23,CCN(CC)CCN(C)Cc1ccc(F)c(Br)c1,3.18%
24,O=C(CNS(=O)(=O)c1ccc(Br)cc1)NCc1cccnc1,-2.09%

# From PMC6919601, “Identification of Plasmodium dipeptidyl aminopeptidase allosteric inhibitors by high throughput screening” (PLoS ONE, 2019)
